Data taken from US11505533B2, “Metabolically stable N-acylaminooxadiazoles useful as antibacterial agents” (MICROBIOTIX, INC., priority 2017, dated 2022).
In brackets after ≈: the same amount, converted by molar mass.

Experiments:
[1] = test system: Neisseria gonorrhoeae strain H041(STMR); test: Vaginal gonococcal murine model
Protocol: FIG. 5 is a graph showing the combined data for two independent in vivo efficacy studies of oral administration of uriedo aminooxadiazole derivative MBX-4132 to female mice infected with Neisseria gonorrhoeae strain H041(STMR) in a vaginal gonococcal murine model. For a published description of the efficacy model, see, Butler, M. et. al., Antimicrobial Agents Chemother., 62(5):e00321 (2018). MBX-4132 was administered (3.3 or 10 mg/kg, PO) once 2 days following infection.
Two separate efficacy studies examined oral efficacy against a murine model of vaginal gonococcal infection. These studies utilized the strain H041, a highly drug-resistant Ng clinical isolate described by Ohnishi et. al. Antimicrob. Agents Chemother., 55(7): 3538 (2011). Each study was performed using both untreated and gentamycin (48 mg/kg IP, QD 5 days) controls (representing 2 experimental groups). In each of two experiments, the test agent was MBX-4132 given as an oral dosage at either 3.3 mg/kg or 10 mg/kg via a single oral dosage. Two days prior to experiments, female BALB/c mice were treated with 17β-estradiol and antibiotics to increase their susceptibility to Ng as described previously (Jerse et. al., Frontiers Microbial., 2: 107 (2011)).
On day 0, mice were inoculated vaginally with 20 μl of strain H041(STM^R) suspended in PBS; suspensions adjusted to 5×10^5 CFU/ml (infectious dose 80; ID80). For H041(STM^R), the ID80 is 10^4 CFU/mouse. Vaginal swabs were quantitatively cultured for Ng on days 1 and 2 following vaginal inoculation to confirm infection prior to treatment. A portion of the swab sample was also inoculated onto HIA agar to monitor commensal flora. Test and control antibiotics were administered on day 2 post-bacterial inoculation after the day 2 culture was collected and for four more consecutive days. […] Vaginal swabs were quantitatively cultured for N. gonorrhoeae for 8 consecutive days following treatment. […] The number of viable bacteria recovered was determined using the Spiral Biotech Q-Counter Software. […]

[2] = test system: E. coli (701, TolC−) efflux neg; test: microbe, parasite or virus in culture; assay type: cell-based; details: Escherichia coli
[3] = test system: trans-translation (non-stop ribosome rescue); test: microbe, parasite or virus in culture; details: Escherichia coli, read-out: AVG Luc IC50 ΔtolC (μM)
Excerpt: The reporter contains a gene encoding luciferase with a strong transcriptional terminator inserted before the stop codon, such that transcription results in a nonstop mRNA. E. coli cells containing the reporter were screened in high-throughput format to identify compounds that inhibit trans-translation. When no inhibitor is present, translation of the nonstop mRNA results in trans-translation followed by proteolysis of luciferase, and cells produce no luminescence. Conversely, active luciferase is produced when a trans-translation inhibitor is present, resulting in luminescence. (See, FIG. 2.)
To verify that analogs with potent antibacterial activity inhibit non-stop ribosome rescue, the inhibitors were tested against a cell-based non-stop ribosome rescue reporter assay that was constructed in an efflux-deficient strain of E. coli. The gain-of-signal assay may be performed essentially as previously described in Ramadoss et al., Proc. Natl. Acad. Sci. U.S.A., 110(25): 10282-7 (2013), except that the dose-dependent increase of signal is used to calculate the compound concentration that produces half maximal induction of the reporter (EC50).

SMILES	MIC [2] [µg/mL]	IC50 [3] [µM]	other results
O=C(Nc1nnc(-c2ccc(F)cc2)o1)N1CCc2ccccc2C1 [MBX-4132]			clearance rate ([1]; 3.3 mg/kg PO once, 2 d after infection): 60%; effect relative to untreated controls ([1]; 3.3 mg/kg PO once, p=0.058): a smaller effect, failing to achieve statistical significance; mice completely cleared of infection ([1]; 10 mg/kg PO once, 2 d after infection, within 6 days of treatment, two experiments combined): 80%
O=C(Nc1nnc(-c2ccc(F)cc2)o1)N1CCc2ccccc2C1 [compound 4132, N-[5-(4-fluorophenyl)-1,3,4-oxadiazol-2-yl]-3,4-dihydroisoquinoline-2(1H)-carboxamide]	2.14 (≈ 6.32 µM)	0.593	
O=C(Nc1nnc(-c2ccc(F)cc2)o1)c1ccc(Oc2ccccc2)nc1 [compound 4237, 2-(6-phenoxynicotinamido)-5-(4-fluorophenyl)-1,3,4-oxadiazole]	0.6 (≈ 1.59 µM)	0.238	
CCN(c1ccccc1)c1ccc(C(=O)Nc2nnc(-c3ccc(F)cc3)o2)cc1 [compound 4285]	13.3 (≈ 33 µM)		
CC(C)(C)OC(=O)N1CC(Oc2ccc(C(=O)Nc3nnc(-c4ccc(F)cc4)o3)cc2)C1 [compound 4288]	1.59 (≈ 3.5 µM)		
O=C(Nc1nnc(-c2ccc(F)cc2)o1)c1ccc(OC2CCCCC2)cc1 [compound 4292]	0.43 (≈ 1.13 µM)	0.26	
O=C(Nc1nnc(-c2ccc(F)cc2)o1)c1ccc(OC2CCCC2)cc1 [compound 4293]	0.51 (≈ 1.39 µM)	0.278	
O=C(Nc1nnc(-c2ccc(F)cc2)o1)c1ccc(Oc2cccc(O)c2)cc1 [compound 4304]		0.78	
Cc1ccc(Oc2ccc(C(=O)Nc3nnc(-c4ccc(F)cc4)o3)cc2)cc1 [compound 4305]		0.259	
Cc1cccc(Oc2ccc(C(=O)Nc3nnc(-c4ccc(F)cc4)o3)cc2)c1 [compound 4306]		0.37	
COc1ccc(Oc2ccc(C(=O)Nc3nnc(-c4ccc(F)cc4)o3)cc2)cc1 [compound 4310]		0.35	
O=C(Nc1nnc(-c2ccc(F)cc2)o1)N1Cc2ccccc2C1 [compound 4330]	2.02 (≈ 6.23 µM)	0.15	
O=C(Nc1nnc(-c2ccc(F)cc2)o1)N1CCc2cc(F)ccc2C1 [compound 4331]	1.11 (≈ 3.12 µM)	0.13	
O=C(Nc1nnc(-c2ccc(F)cc2)o1)N1CCc2ccc(F)cc2C1 [compound 4332]	1.11 (≈ 3.12 µM)	0.11	
C=CCN(C)C(=O)Nc1nnc(-c2ccc(F)cc2)o1 [compound 4345]	6.9 (≈ 25 µM)		
O=C(Nc1nnc(-c2ccc(F)cc2)o1)N1CC=C(C(F)(F)F)CC1 [compound 4347]	27 (≈ 75.8 µM)	0.14	
CC(Oc1ccc(C(=O)Nc2nnc(-c3ccc(F)cc3)o2)cc1)c1ccccc1 (stereo not drawn) [compound 4357]		0.123	
